# From the supplement of paper PMC9911699
# Some of the results follow.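 The calls were made as follows: active = average curve height above 101 Omnilog units; inactive = average height at or below 101.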 Many values rest on one well or one pass, so single values are uncertain.
# Assays:
# [1] = tested on: Acinetobacter baumannii AB6870155; experiment: respiration area under curve on compound as sole carbon source (Biolog PM, 48 h) (arbitrary Omnilog units x h (AUC)); higher = more carbon source utilisation / respiration; details: Biolog inoculating fluid, temperature: 37 °C
# [2] = tested on: Klebsiella pneumoniae KP6870155; experiment: as above; details: Biolog inoculating fluid, temperature: 37 °C
Structure (SMILES),respiration area under curve [1],respiration area under curve [2]
CCCCCC(=O)O [Caproic Acid],active: 10400,inactive: 2680
C/C(=C/C(=O)O)C(=O)O [Citraconic Acid],active: 8200,inactive: 3190
O=c1[nH]cnc2c1ncn2[C@@H]1O[C@H](CO)[C@@H](O)[C@H]1O [Inosine],inactive: 2670,active: 12200
NC(=O)[C@H]1O[C@@H](O)[C@H](O)[C@@H](O)[C@@H]1O [Glucuronamide],inactive: 6600,active: 8520
O=CC(=O)O [Glyoxylic Acid],inactive: 1890,inactive: 3380
CC(C)C[C@H](N)C(=O)O [L-Leucine],inactive: 6480,inactive: 3570
N[C@@H](CCC(=O)O)C(=O)O [L-Glutamic Acid],active: 12100,active: 11200
OC[C@@H]1OC(O)[C@@H](O)[C@H](O)[C@H]1O (stereo partly drawn) [L-Glucose],inactive: 1580,inactive: 3600
Nc1ncnc2c1ncn2[C@H]1C[C@H](O)[C@@H](CO)O1 [2-Deoxy Adenosine],inactive: 1730,active: 11800
N[C@@H](CC(=O)O)C(=O)O [L-Aspartic Acid],active: 12000,active: 11600
"C[N+](C)(C)CC(O)CC(=O)[O-] (racemic) [D,L-Carnitine]",inactive: 2460,inactive: 3200
OC[C@H]1O[C@H](O[C@H]2[C@H](O)[C@@H](O)[C@@H](O[C@H]3[C@H](O)[C@@H](O)C(O)O[C@@H]3CO)O[C@@H]2CO)[C@H](O)[C@@H](O)[C@@H]1O (mixture of isomers) [Maltotriose],inactive: 2030,active: 11300
O=C(CO)[C@@H](O)[C@@H](O)[C@H](O)CO [D-Tagatose],inactive: 1790,active: 11500
O=C(O)Cc1ccc(O)cc1 [p-Hydroxy Phenyl Acetic Acid],inactive: 2340,active: 11100
O=C(CO)[C@@H](O)[C@H](O)[C@H](O)CO[C@H]1O[C@H](CO)[C@@H](O)[C@H](O)[C@H]1O [Palatinose],inactive: 2640,active: 10800
O=C(O)/C=C/C(=O)O [Fumaric Acid],active: 11500,active: 10700
O=c1ccn([C@@H]2O[C@H](CO)[C@@H](O)[C@H]2O)c(=O)[nH]1 [Uridine],inactive: 2510,active: 12200
CC(O)(CC(=O)O)C(=O)O (centres undefined) [Citramalic Acid],active: 10100,inactive: 3470
OC[C@H]1O[C@H](OC[C@H]2O[C@H](OC[C@H]3O[C@H](O[C@]4(CO)O[C@H](CO)[C@@H](O)[C@@H]4O)[C@H](O)[C@@H](O)[C@@H]3O)[C@H](O)[C@@H](O)[C@H]2O)[C@H](O)[C@@H](O)[C@H]1O [Stachyose],inactive: 1440,active: 11900

Structure (SMILES),respiration area under curve [1],respiration area under curve [2]
COC1OC(CO)C(O)C(O)C1O [Alpha-Methyl-D-Galactoside],inactive: 1430,active: 10900
N[C@H](CC(=O)O)C(=O)O [D-Aspartic Acid],inactive: 1670,inactive: 4000
COC1OCC(O)C(O)C1O [Beta-Methyl-D-Xyloside],inactive: 1930,inactive: 4260
"O=C1O[C@H](CO)[C@@H](O)[C@H]1O [D-Ribono-1,4-Lactone]",active: 10700,inactive: 2720
OC1OC[C@@H](O)[C@@H](O)[C@@H]1O (stereo partly drawn) [D-Arabinose],inactive: 1620,inactive: 4370
O=C(O)[C@H](O)[C@@H](O)[C@H](O)[C@H](O)CO[C@H]1O[C@H](CO)[C@H](O)[C@H](O)[C@H]1O [Melibionic Acid],inactive: 1550,active: 11400
O=C(O)[C@H]1OC(O)[C@H](O)[C@@H](O)[C@H]1O (stereo partly drawn) [D-Galacturonic Acid],inactive: 3230,active: 11400
O=C(O)c1ccccc1O [2-Hydroxy Benzoic Acid],inactive: 684,inactive: 1100
OCC(O)C(O)C(O)CO (centres undefined) [Adonitol],inactive: 1540,active: 11000
C/C=C/C=C/C(=O)O [Sorbic Acid],active: 11000,inactive: 3710
NCC(=O)N1CCC[C@H]1C(=O)O [Glycyl-L-Proline],inactive: 6530,active: 10900
OC[C@H](O)C(O)[C@@H](O)CO [L-Arabitol],inactive: 1630,inactive: 4180
O=CO [Formic Acid],inactive: 2950,inactive: 7050
O=C(O)[C@@H](O)[C@H](O)C(=O)O [D-Tartaric Acid],inactive: 2520,inactive: 3590
OC[C@H]1O[C@@H]2O[C@H]3[C@H](O)[C@@H](O)[C@@H](O[C@H]4[C@H](O)[C@@H](O)[C@@H](O[C@H]5[C@H](O)[C@@H](O)[C@@H](O[C@H]6[C@H](O)[C@@H](O)[C@@H](O[C@H]7[C@H](O)[C@@H](O)[C@@H](O[C@H]8[C@H](O)[C@@H](O)[C@@H](O[C@H]1[C@H](O)[C@H]2O)O[C@@H]8CO)O[C@@H]7CO)O[C@@H]6CO)O[C@@H]5CO)O[C@@H]4CO)O[C@@H]3CO [Beta-Cyclodextrin],inactive: 1930,inactive: 4370
CC[C@H](C)[C@H](N)C(=O)O [L-Isoleucine],inactive: 4020,inactive: 3170
OC[C@H]1O[C@H](OC[C@H]2OC(O)[C@H](O)[C@@H](O)[C@@H]2O)[C@H](O)[C@@H](O)[C@H]1O (stereo partly drawn) [D-Melibiose],inactive: 2240,active: 10900
NCC(=O)N[C@@H](CCC(=O)O)C(=O)O [Glycyl-L-Glutamic Acid],inactive: 2600,active: 10900
